Measurements published in PubChem BioAssay (NCATS).
This list was built around the results that the source calls inconclusive (neither active nor inactive); the mix of calls is not that of the screen. Where the call is inconclusive, the potency comes from a doubtful curve fit. Active and inactive are the calls of the source. The call rests on the fitted dose curve; in most records, active means well fitted cell-killing curve with a large enough effect; inconclusive means small, poorly fitted or top-dose-only effect, or effect the other way; inactive means no such curve, though single readings can be large or run the other way.

Legend:
[1] = Viability qHTS for spleen associated tyrosine kinase inhibitor (SYKi) naive MV4-11 cells (AID 1963823); details: MV4-11 AML viability, CellTiter-Glo luminescence, 72 h; series mostly up to 45 µM; further: nearly all actives have a fitted effect of over 40% in size
Method in brief: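 Luminescence from CellTiter-Glo, developed 10 min at room temperature, gave viability of MV4-11 cells never exposed to SYK inhibitor. Cells (500/well) had been incubated with compounds for 72 hr under standard culture conditions.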

[2] = Viability qHTS for spleen associated tyrosine kinase inhibitor (SYKi) drug resistant MV4-11 cells (AID 1963824); further: nearly all actives have a fitted effect of over 35% in size
Method in brief: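 CellTiter-Glo luminescence, read 10 min after reagent addition, reports viability after a 72 hr compound exposure. Cells are an MV4-11 line made resistant to SYK inhibition, seeded at 500 per well onto compound-containing plates.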
Potency means the concentration at half of the fitted maximal effect; tags describe the fitted curve by direction and shape.

| SMILES | Potency [1] | Potency [2] |
| --- | --- | --- |
| CCCn1cnc2c(NCc3ccc(C)s3)nc(N[C@H](CC)CO)nc21 | inconclusive: 5.8 µM [cytotoxic, full curve] | inconclusive: 5.17 µM [cytotoxic, partial curve] |
| CCc1ccc(-c2nc(CSCC(=O)NCCc3ccccc3)c(C)o2)cc1 | inconclusive: 18.4 µM [cytotoxic, partial curve] | inconclusive: 20.6 µM [cytotoxic, partial curve] |
| CCCCc1nc(Cl)c(CO)n1Cc1ccc(-c2ccccc2-c2nn[nH]n2)cc1 | inconclusive: 13.3 µM [cytotoxic, partial curve, poor fit] | inconclusive: 1.5 µM [cytotoxic, full curve, poor fit] |
| CCCCCC(=O)N1CCC[C@H]1C(=O)N[C@@H](Cc1ccc(O)cc1)C(=O)OC | inconclusive: 20.6 µM [cytotoxic, single point] | inconclusive: 25.9 µM [cytotoxic, single point] |
| O=C(O)c1ccc(OCCN2CCCCC2)cc1 | inconclusive: 0.531 µM [rising, full curve] | inactive |
| CC1(C)C(=O)N2c3ccccc3[C@]3(CC(n4cnc5ccccc5c4=O)C(=O)O3)[C@H]2N1O (some centres not stated) | inactive | inconclusive: 3.99 µM [cytotoxic, partial curve, poor fit] |
